Measurements from PubChem BioAssay AID602233 (National Center for Advancing Translational Sciences (NCATS), 2012).
Hit rate of the full screen: of about 380,000 compounds, about 170 (0.045%) were called active. Inconclusive means that the source gave no clear call. Such entries were picked first, then a sample of the others. Calls come from the whole dose curve; as a rule, active = well fitted inhibition curve with a large enough effect; inconclusive = small, poorly fitted or top-dose-only effect; inactive = no such curve, though single readings can be large or run the other way. No potency is given beside an inconclusive call; the fits are too rough.

Target: Phosphoglycerate kinase, glycosomal (Trypanosoma brucei brucei) (UniProt P07378)
Test: qHTS Assay to Find Inhibitors of Phosphoglycerate Kinase; note: nearly all actives have a fitted effect of over 60% in size
Details: PGK/GAPDH coupled, Kinase-Glo luminescence, 60 min; series mostly up to 57.5 µM; activity change, negative = inhibition: at the top concentration
Procedure, shortened: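 Recombinant glycosomal PGK reaction used 1,3-bisphosphoglycerate generated in-well by GAPDH (100nM final) in 100mM TEA pH 7.6, 5mM MgCl2, 0.01% Tween-20. After 60 minutes at room temperature, ATP was read by Kinase-Glo Plus luminescence end-point.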
% is set by controls: 0 for no effect and ±100 for the full control effect; potency is the fitted concentration of half-maximal effect; tags give direction and shape of the fitted curve.

Row | Structure (SMILES) | Potency | activity change, negative = inhibition | outcome
1 | CC(C)(C)C1C/C(=C/c2ccco2)C(=O)/C(=C/c2ccco2)C1 (stereo not drawn) | inconclusive [inhibitor, single point] |  | 
2 | CCCC(=O)n1nc(-c2cccnc2)nc1NCc1ccccc1 | inactive |  | 
3 | COc1ccc(N2CCN(C(=O)Nc3ccccc3Cl)CC2)cc1 | inconclusive [inhibitor, partial curve, poor fit] |  | 
4 | CC/C(=C/c1ccccc1)c1cccc2[nH]c3c(OC)cccc3c12 | inconclusive [inhibitor, partial curve, poor fit] |  | 
5 | O=C(O)c1cc(S(=O)(=O)O)ccc1O |  | inactive: -4.75% | 
6 | Cc1cc(N2CCN(c3ccc(F)cc3)CC2)n2cnnc2n1 |  | inactive: 0.759% | 
7 | Cc1nc(NC(=O)c2ccco2)sc1C(=O)O | inconclusive [inhibitor, single point] |  | 
8 | CCOC(=O)c1ccc(NC(=S)Nc2ccc(Cl)cn2)cc1 | inconclusive [inhibitor, partial curve, poor fit] |  | 
9 | COc1cc(/C=N/n2cnc3scc(-c4cccs4)c3c2=O)cc(OC)c1OC | inconclusive [inhibitor, single point] |  | 
10 | Cc1cccc2cc(C(c3nnnn3C(C)(C)C)N(Cc3ccco3)CC3CCCO3)c(=O)[nH]c12 (stereo not drawn) | inconclusive [inhibitor, partial curve, poor fit] |  | 
11 | COc1ccc(C(=O)NNC(=O)c2ccccn2)cc1 | inconclusive [inhibitor, partial curve, poor fit] |  | 
12 | COc1ccc(OC)c(CNC(=O)C2CCCCN2S(=O)(=O)c2ccc(F)cc2)c1 (stereo not drawn) |  | inactive: -0.316% | 
13 | COc1ccc(CCNC(=O)c2nc(-c3cccs3)no2)cc1OC |  | inactive: -0.591% | 
14 | Cc1cccc(N(C(=O)CCC(=O)Nc2cc(C)on2)C(C(=O)NC2CCCC2)c2ccc(C)o2)c1 (stereo not drawn) |  | inactive: 1.96% | 
15 | O=C(O)C1=C(C(=O)O)C2C=CC1C2 | active: 11.2 µM |  | 
16 | O=C1NN(c2cccc(Br)c2)C(=O)/C1=C/c1ccc(-c2cc([N+](=O)[O-])ccc2O)o1 | inconclusive [inhibitor, single point] |  | 
17 | O=C(O)CCCN1C(=O)/C(=C\c2ccc(-c3nc4ccccc4s3)o2)SC1=S | inconclusive [inhibitor, full curve] |  | 
18 | O=C(NCc1ccco1)c1ccc2c(c1)N(Cc1c(F)cccc1Cl)C(=O)c1ccccc1S2 | inconclusive [inhibitor, partial curve, poor fit] |  | 
19 | Cc1c(Cl)cccc1NS(=O)(=O)c1ccc2c(c1)C1C=CCC1C(c1ccc(C(=O)O)cc1)N2 (stereo not drawn) | inconclusive [inhibitor, single point] |  | 
20 | COc1cccc(/C=N/Nc2ccc(S(=O)(=O)Nc3ccccc3C(=O)O)cc2[N+](=O)[O-])c1O | inconclusive [inhibitor, single point] |  | 
21 | COc1ccc(-c2nnc(NC(=O)c3ccccc3C)o2)cc1 |  | inactive: -14.4% | 
22 | C#CCSc1nc2sc3c(c2c(=O)n1C)CCC3 | inconclusive [inhibitor, partial curve] |  | 
23 | CCn1cc2nc(SCC(=O)Nc3ccccc3C(F)(F)F)n(Cc3ccc(C)cc3)c(=O)c2n1 |  | inactive: -2.06% | 

Row | Structure (SMILES) | Potency | activity change, negative = inhibition | outcome
24 | CCSc1nnc(NC(=O)CSc2sc3c(O)cc(=O)[nH]c3c2C#N)s1 | inconclusive [inhibitor, single point] |  | 
25 | COC1CC(=O)C2OC(c3ccccc3)OCC2O1 (stereo not drawn) | inconclusive [inhibitor, single point] |  | 
26 | Cc1ccccc1NC(=S)N(Cc1cccs1)C1CCCCC1 | inconclusive [inhibitor, single point] |  | 
27 | Nc1cccc2c(O)cc(S(=O)(=O)O)cc12 | active: 17.8 µM |  | 
28 | CC(C)(C)OC(=O)NNC(=O)c1ccc(Cl)cc1 | inconclusive [inhibitor, partial curve, poor fit] |  | 
29 | COc1ccc(-c2noc(CN(C)CCC3CCCCO3)n2)cc1 (stereo not drawn) |  |  | inactive
30 | Cc1nonc1C(=O)N/N=C/c1ccc(O)c(O)c1 | inconclusive [inhibitor, single point] |  | 
31 | CCCSCCCNC(=O)c1ccc(NC(=O)C2=CSCCO2)cc1 |  | inactive: -9.82% | 
32 | COc1ccc(-n2nc(C(=O)NCC(=O)NCC3CCCO3)c3ccccc3c2=O)c(OC)c1 (stereo not drawn) |  | inactive: -3.7% | 
33 | COC(=O)c1sccc1NC(=S)N1CCN(c2cc(C)ccc2C)CC1 | inconclusive [inhibitor, partial curve, poor fit] |  | 
34 | COc1ccc(C(C(=O)NC2CCCCC2)N(Cc2cccs2)C(=O)Cc2c[nH]c3ccccc23)cc1OC (stereo not drawn) |  | inactive: -2.77% | 
35 | CCCCn1cnc2c(SCc3ccc([N+](=O)[O-])cc3)nc(N)nc21 |  | inactive: -0.0208% | 
36 | NC(=NCc1ccc2c(c1)OCO2)NC(=O)c1ccccc1 | inconclusive [inhibitor, partial curve] |  | 
37 | N=C1/C(=C\c2ccc(Br)o2)C(=O)N=C2SC(CC(=O)N3CCCCC3)=NN12 |  | inactive: -15.4% | 
38 | O=C1C=C(O)c2c(O)cc(O)c(O)c2C1=O | inconclusive [inhibitor, full curve] |  | 
39 | CCN(CC(=O)Nc1c(F)cccc1F)C(=O)/C=C/c1ccc2ccccc2n1 | inconclusive [inhibitor, partial curve, poor fit] |  | 
40 | Cc1cccc(C(=O)n2c(=S)nc3cc(C)ccn32)c1 |  | inactive: -12.6% | 
41 | Cc1nn(C(C)C(=O)NC2C(=O)N3C(C(=O)O)=C(CSc4nnnn4C)CSC23)cc1Cl (stereo not drawn) | inconclusive [inhibitor, partial curve] |  | 
42 | O=C1CCCC(O)=C1N=Nc1ccc(C(=O)O)cc1 | inconclusive [inhibitor, partial curve] |  | 
43 | Fc1ccc(-c2nc3n(n2)Cc2ccccc2-3)cc1 | inconclusive [inhibitor, single point] |  | 
44 | Cc1ccc(S(=O)(=O)/N=C2/C=C(Sc3ncn[nH]3)C(=O)c3ccccc32)cc1 | inconclusive [inhibitor, single point] |  | 
45 | O=c1[nH][nH]c2c(N=Cc3ccccc3O)ccc(F)c12 | active: 15.8 µM |  | 
46 | O=S(=O)(c1cccc(Cl)c1)n1c(/C=C/c2ccccc2Cl)nc2ccccc21 | inconclusive [inhibitor, single point] |  | 

Row | Structure (SMILES) | Potency | activity change, negative = inhibition | outcome
47 | COc1cc(/C=C2\CCCc3c2nc2ccccc2c3C(=O)O)cc([N+](=O)[O-])c1O |  | inactive: -12.7% | 
48 | O=C(NCC1CCN(Cc2cccc(Cl)c2)CC1)Nc1ccc(F)c(Cl)c1 |  | inactive: -9.46% | 
49 | Cc1cc(C(=O)CCl)c(C)n1-c1c(C)n(C)n(-c2ccccc2)c1=O |  | inactive: 6.05% | 
50 | COc1ccc(OC)c(NC(=O)C(=O)NNC(=O)C23CC4CC(CC(C4)C2)C3)c1 |  | inactive: 5.17% | 
51 | Cn1nnnc1SCC1=C(C(=O)O)N2C(=O)C(NC(=O)C3CC3c3ccccc3)C2SC1 (stereo not drawn) | inconclusive [inhibitor, single point] |  | 
52 | CCOc1ccccc1NC(=O)CCS(=O)(=O)c1ccc(Br)cc1 | inconclusive [inhibitor, partial curve] |  | 
53 | COc1ccc(S(=O)(=O)NCCSC(C)(C)C)c(Cl)c1Cl | inconclusive [inhibitor, single point] |  | 
54 | COc1cccc(-c2nc(-c3ccccn3)no2)c1 | inconclusive [inhibitor, partial curve] |  | 
55 | O=C(c1ccc(Br)cc1)N1CCC(c2nc3ccccc3s2)CC1 |  | inactive: -0.246% | 
56 | N#CC1=C(N)n2c(s/c(=C\c3ccco3)c2=O)=C(C#N)C1c1ccco1 (stereo not drawn) | inconclusive [inhibitor, partial curve] |  | 
57 | Cc1cccc(NC(=O)/C(=C\c2ccc([N+](=O)[O-])o2)NC(=O)c2ccc(Cl)cc2)c1 | inconclusive [inhibitor, partial curve, poor fit] |  | 
58 | O=C1COc2ccc(C(=O)COC(=O)/C=C/c3ccc(Br)o3)cc2N1 | inconclusive [inhibitor, partial curve, poor fit] |  | 
59 | Cn1c(=O)c(=O)n(C)c2cc(S(=O)(=O)CCC(=O)Nc3ccccc3C(F)(F)F)ccc21 | inconclusive [inhibitor, partial curve, poor fit] |  | 
60 | Cc1ccc(/C=C2\SC(=S)N(/N=C/c3cc([N+](=O)[O-])ccc3O)C2=O)o1 |  | inactive: -17% | 
61 | O=C(O)c1ccc(N2C(=O)/C(=C/c3ccc(-c4ccc([N+](=O)[O-])cc4)o3)C=C2c2ccccc2)cc1 | inconclusive [inhibitor, full curve, poor fit] |  | 
62 | Cc1ccc(C(=O)Nc2nc(-c3ccco3)c(-c3ccco3)s2)o1 |  | inactive: -4.18% | 
63 | CN(c1ccccc1)c1ccc(/C=C(\CCC(=O)O)c2nc3ccccc3s2)cc1[N+](=O)[O-] | inconclusive [inhibitor, single point] |  | 
64 | O=C(NN=Cc1ccc2c(c1)OCO2)c1ccccc1 | inconclusive [inhibitor, partial curve, poor fit] |  | 
65 | Cc1ccc(C)c(NC(=O)CN(C)C(=O)c2cccc(-n3cccc3)c2)c1 | inconclusive [inhibitor, partial curve] |  | 
66 | C=C(C)C(=O)Nc1cccc(C2=NOC3(C2)C[C@@H](C(N)=O)N(C(=O)/C(C)=C/C)C3)c1 (stereo partly drawn) | inconclusive [inhibitor, full curve, poor fit] |  | 
67 | CCOC(=O)c1cnc2cc(C)ccn2c1=O |  | inactive: -4.46% | 
68 | COC(=O)c1c(-c2cc(C)ccc2C)csc1NC(=O)C1CC=CCC1C(=O)O (stereo not drawn) | inconclusive [inhibitor, partial curve, poor fit] |  | 
